In all, about 33,000 sequences were measured (“E-score (-0.5 to 0.5)”: median about -0.021, highest 2% from about 0.32 on). The list shows a part of the results.
Each sequence was assayed against T1, Zap1 (UniProt P47043) (assay: PBM E-score (8-mer binding enrichment) (E-score (-0.5 to 0.5)); higher = stronger / more preferred TF binding; most listed sequences are background and not binding sites). Conditions: protein concentration: 200 nM; construct: GST-full length.
T1 sequence: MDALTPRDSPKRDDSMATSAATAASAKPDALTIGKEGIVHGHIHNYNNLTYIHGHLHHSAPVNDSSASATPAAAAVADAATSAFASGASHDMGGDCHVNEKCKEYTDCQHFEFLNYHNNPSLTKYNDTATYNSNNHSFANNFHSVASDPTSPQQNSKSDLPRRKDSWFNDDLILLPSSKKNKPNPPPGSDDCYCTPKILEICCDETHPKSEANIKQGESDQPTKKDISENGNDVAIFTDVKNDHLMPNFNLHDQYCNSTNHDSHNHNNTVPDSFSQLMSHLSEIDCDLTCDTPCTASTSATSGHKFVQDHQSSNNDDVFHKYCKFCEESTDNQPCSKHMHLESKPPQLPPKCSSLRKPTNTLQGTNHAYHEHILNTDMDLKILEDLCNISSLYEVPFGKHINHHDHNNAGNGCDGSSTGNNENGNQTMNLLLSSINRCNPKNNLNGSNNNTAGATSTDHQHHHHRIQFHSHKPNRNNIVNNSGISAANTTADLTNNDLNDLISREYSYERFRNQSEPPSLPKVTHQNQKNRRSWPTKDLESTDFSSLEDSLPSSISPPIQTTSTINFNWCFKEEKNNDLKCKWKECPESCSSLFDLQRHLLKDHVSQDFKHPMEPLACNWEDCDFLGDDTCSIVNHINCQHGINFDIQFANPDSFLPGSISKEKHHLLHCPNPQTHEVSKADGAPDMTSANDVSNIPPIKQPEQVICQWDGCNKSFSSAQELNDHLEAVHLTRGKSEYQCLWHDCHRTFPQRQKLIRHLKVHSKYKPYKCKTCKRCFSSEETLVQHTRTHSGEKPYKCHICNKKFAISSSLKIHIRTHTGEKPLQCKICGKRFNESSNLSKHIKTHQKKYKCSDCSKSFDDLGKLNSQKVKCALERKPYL
Method: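 Universal 'all 10-mer' protein binding microarrays (Agilent AMADID 015681) probed with GST-tagged S. cerevisiae TFs (full-length or DBD) made by in vitro transcription/translation (PURExpress), about 100-200 nM. Bound TF was detected with fluorescent anti-GST. Each ungapped 8-mer (which stands for itself and its reverse complement) is scored by the PBM enrichment score (E-score), a modified Wilcoxon-Mann-Whitney statistic from -0.5 to +0.5, computed with the Universal PBM Analysis Suite. Scale: above 0.35 generally sequence-specific binding.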

Sequence	PBM E-score
GTATGCTA	-0.0179
CACCACAA	0.147
CCGCTAGG	0.0355
CTCGTAAC	0.327
GTAAGAAC	0.16
AATTTCAA	0.0698
ACAAACCT	0.132
CCATCAGG	0.173
ATATAAGG	0.233
TATCACGA	-0.0459
GCGACACC	0.0184
GATTTTGC	-0.179
CCACCGGC	-0.151
ACCCCTTC	0.234
CATCGCCG	-0.234
CGTCTTTA	0.202
CCCTTGCC	-0.0358
ATTCTTAA	-0.00338
CCGGGAAC	-0.0469
CAGCACTC	-0.102
ATCGGGTC	0.139
ATGTGGTA	0.169
CGTTAGAG	-0.109
GCGAGAGA	-0.278
ACTGATCT	-0.0207

Sequence	PBM E-score
ACCTCCAC	0.246
GAGGACAC	-0.0267
GCTATCCA	-0.0719
ACATGCGA	-0.112
GCGGCAAC	-0.0926
TCGTCAGA	-0.147
GAGTTATA	0.142
AGGATAGG	0.0469
GGCGAGGA	-0.328
CCCTTTTA	0.0826
GCCATACC	-0.0123
CGGACTAG	-0.294
AGAGAGAC	-0.00859
GCGAATTA	0.0522
AAGTAGCC	-0.0966
GACGTGGA	-0.231
ACAATTGG	-0.0772
GAGCTTGC	-0.303
AACATTTC	0.016
CCGACTCC	-0.258
TAAAAGGA	0.217
CTTGCGTC	-0.0988
GGTAATCA	0.242
ATGTGAAT	0.0575
AAATCCAT	-0.00087

Sequence	PBM E-score
AGCTACAG	-0.206
AGTTTACA	0.18
CCTCCTTC	-0.148
AAAGAAGC	-0.0231
CCAAGCGC	-0.279
ATCCGGCG	-0.274
ATACGGAT	-0.0958
ACAGCGCA	-0.133
GGACTGCC	-0.161
ATTAGCAC	-0.0547
GAGCCGCA	-0.21
CTACCCCC	-0.295
CCGACCGA	-0.0556
GGACTATA	-0.0435
CGAATTGC	-0.0962
AGGTACCG	0.43
TCGCGGAA	-0.0426
GAATCTGC	-0.135
TCGGGAGA	-0.316
AGAATCCG	-0.0807
AATCTTCT	-0.0118
CTGTCTTA	0.00679
AGACACGG	-0.0446
ATGCCCCA	-0.141
CGACTAGC	-0.2

Sequence	PBM E-score
CAAGGAGG	-0.0113
GGCACCCC	0.065
AGCCGAGA	-0.0701
CTGTGACA	-0.0182
ATCAGGAA	0.00148
CCGCTGCA	-0.0498
ATAGACGC	-0.147
AACAGAGC	-0.189
CTGCGAAG	-0.179
AACATCTG	-0.137
CAACAACC	0.274
CGAGCCAC	-0.181
AAGATCAT	-0.0644
CTAAGTTA	0.155
CCTCTGAC	0.139
TCCTCAGA	0.0182
CGCGCAAG	-0.0116
ACATTTTG	0.0143
ACCCACAT	0.253
CCGAATAA	0.201
CCACAAAG	0.34
GTACGCTA	-0.112
ACAGAAGA	-0.061
ACGGTGTG	-0.136
ACGATGGA	0.00241

Sequence	PBM E-score
AGGGGATG	-0.0219
AGATGCCG	-0.23
AAGTAGGC	-0.106
CGGAACCA	0.229
CGGCCCAA	0.0673
ATTGATGA	0.0238
GACTAGCC	-0.201
TTAGTAAA	0.0891
ACCGCGAG	0.284
CCCATGCA	-0.0459
TCTATAAA	0.166
CATCTTAC	-0.152
ACAACTAT	0.204
AGCATAGG	-0.184
ATAGTCGA	0.04
CGGATATC	0.0772
ACACTAGA	0.128
ATCAAGAT	-0.111
GGCCGATA	-0.0328
AGGGCTTC	-0.0391
ACAAGGGG	-0.128
TACTTTAA	0.00612
ACCTATCG	0.096
ATGGCTTA	-0.0746
TTCACGAA	-0.0117

Sequence	PBM E-score
CATTCCGG	-0.0375
CCAATATA	-0.204
CAGGCCCC	-0.242
GCCATTAC	0.233
GCTATAGC	-0.336
AAGCTAGG	-0.279
CAGCAATA	0.0305
CCCCAGTC	-0.237
GCTTGTTA	0.126
GCCCTTTA	-0.0495
ACCACCAT	0.195
AATAAGCT	-0.00782
GATTTAAA	-0.0992
CGTCTTGC	-0.0827
GCCAGCAC	-0.171
CGCACCCG	0.0874
TCGACGAA	-0.00492
TCCGGAAA	-0.0642
GTTAGGAA	0.168
ATGCCCGC	-0.0492
CACATGAG	-0.145
CGAGCGCA	-0.0559
CAACTACC	0.203
ACTTAAAC	0.122
TAGACGCA	-0.184

Sequence	PBM E-score
AGCGAGGA	-0.134
CATACGGA	-0.169
CATGAAAG	0.0835
CCGGGCGC	-0.315
AGGGCAAA	0.0585
GCTGCAAC	-0.0782
GCGCAAAC	-0.0236
ATGTGTTC	0.133
CCGGGCGA	-0.141
AGCGTCGC	-0.279
ATGACACG	-0.109
AAACCGAG	-0.135
AAGCAGGG	-0.179
AGGACGGA	-0.255
GCATAATA	0.171
GGTGGGGA	0.28
AAACTGTA	0.0773
ACAATTTG	-0.158
AGTGTAAT	-0.147
AAACGGCG	-0.0555
CACTAAAC	0.155
CTGTCCAC	-0.0437
CCACGAGG	0.3
AAATATAA	0.224
ACTACAGC	-0.193

Sequence	PBM E-score
AACACGCA	0.00642
CGTCTCCC	-0.218
AGACTTGA	-0.0479
GCATGCGC	-0.0204
AGTACAAT	0.101
CATGCCCC	-0.212
TGTTGGAA	0.135
GGCTCAAC	-0.116
CCCTTACG	-0.0713
CGTCTTAC	-0.00492
CCGAAATC	-0.0593
CATATCTA	-0.0118
TGTGCAAA	-0.0563
AGCGGGTA	0.149
ATCGCCTG	-0.251
CGGGCGAG	-0.0126
GCAGAGGC	-0.124
AAATAACG	0.042
AGACGCAA	0.0382
GGGCAGAA	0.0384
GGATGTAA	0.184
CACTTTAG	-0.0914
ATTGAGAC	0.203
GGATTCTA	-0.144
CTCGTAGC	-0.0655

Sequence	PBM E-score
ATCTGTTC	0.0409
ATATTTGC	0.0299
AGCAGATC	-0.0265
ATCGCAGG	-0.00676
GAGCGTGC	-0.173
CTATTTTA	0.0977
ATCGTTAA	0.0793
CCAACAAG	0.163
GTAATGTA	0.041
AGTGGTCC	-0.0628
CCTGGTAC	0.154
CGTTACAG	0.0324
GTTACACA	0.186
AGGGTTCA	0.146
ACTGTACT	-0.159
ATCATGTC	-0.062
ATAATAGG	0.121
CAGAGGGG	-0.159
CTCTATTA	-0.0398

Reference: the supplement of paper PMC3334620
